# Measured values from the supplement of paper PMC8728848.
# This is one part of the list.
# Key:
# Assay in all cases: glycan array binding signal (z-score within array); higher = stronger binding
# Details in all cases: glycan notation: IUPAC condensed, linker removed
# [1] = biological target: Neu5Ac(a2-3)Gal(b1-4)[Fuc(a1-3)]GlcNAc
# Method in brief: (§1)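 The Consortium for Functional Glycomics database supplied 3228 glycan arrays, of which those lacking an available protein sequence were dropped. The binding signal, a within-array Z-score, was averaged across arrays of the same protein sequence and across linkers. Negative scores can be read as non-binding.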
# [2] = biological target: Neu5Ac(a2-3)Gal(b1-4)[Fuc(a1-3)]GlcNAc(b1-3)Gal
# Method in brief: as §1
# [3] = biological target: Neu5Ac(a2-3)Gal(b1-4)[Fuc(a1-3)]GlcNAc(b1-3)Gal(b1-4)GlcNAc
# Method in brief: as §1
# [4] = biological target: Neu5Ac(a2-3)Gal(b1-4)[Fuc(a1-3)]GlcNAc(b1-3)Gal(b1-4)[Fuc(a1-3)]GlcNAc(b1-3)Gal(b1-4)[Fuc(a1-3)]GlcNAc
# Method in brief: as §1
# [5] = biological target: Neu5Ac(a2-3)Gal(b1-4)[Fuc(a1-3)]GlcNAc(b1-6)[Gal(b1-3)]GalNAc
# Method in brief: as §1
# [6] = biological target: Neu5Ac(a2-3)Gal(b1-4)[Fuc(a1-3)]GlcNAc(b1-6)[Neu5Ac(a2-3)Gal(b1-3)]GalNAc
# Method in brief: as §1
# [7] = biological target: Neu5Ac(a2-3)Gal(b1-4)[Fuc(a1-3)]GlcNAc6S
# Method in brief: as §1
# [8] = biological target: Neu5Ac(a2-3)Gal6S(b1-4)GlcNAc
# Method in brief: as §1
# [9] = biological target: Neu5Ac(a2-3)Gal6S(b1-4)[Fuc(a1-3)]GlcNAc
# Method in brief: as §1
# [10] = biological target: Neu5Ac(a2-3)GalNAc
# Method in brief: as §1
# [11] = biological target: Neu5Ac(a2-3)GalNAc(b1-4)GlcNAc
# Method in brief: as §1
# [12] = biological target: Neu5Ac(a2-3)[GalNAc(b1-4)]Gal(b1-4)Glc
# Method in brief: as §1
# [13] = biological target: Neu5Ac(a2-3)[GalNAc(b1-4)]Gal(b1-4)GlcNAc
# Method in brief: as §1
# [14] = biological target: Neu5Ac(a2-3)[Neu5Ac(a2-6)]GalNAc
# Method in brief: as §1
# [15] = biological target: Neu5Ac(a2-6)Gal
# Method in brief: as §1
# [16] = biological target: Neu5Ac(a2-6)Gal(b1-4)Glc
# Method in brief: as §1
# [17] = biological target: Neu5Ac(a2-6)Gal(b1-4)GlcNAc
# Method in brief: as §1
# [18] = biological target: Neu5Ac(a2-6)Gal(b1-4)GlcNAc(b1-2)Man(a1-3)Man(b1-4)GlcNAc(b1-4)GlcNAc
# Method in brief: as §1
# [19] = biological target: Neu5Ac(a2-6)Gal(b1-4)GlcNAc(b1-2)Man(a1-3)[Gal(b1-4)GlcNAc(b1-2)Man(a1-6)]Man(b1-4)GlcNAc(b1-4)GlcNAc
# Method in brief: as §1
# [20] = biological target: Neu5Ac(a2-6)Gal(b1-4)GlcNAc(b1-2)Man(a1-3)[GlcNAc(b1-2)Man(a1-6)]Man(b1-4)GlcNAc(b1-4)GlcNAc
# Method in brief: as §1
# [21] = biological target: Neu5Ac(a2-6)Gal(b1-4)GlcNAc(b1-2)Man(a1-3)[GlcNAc(b1-2)Man(b1-4)GlcNAc(b1-2)Man(a1-6)]Man(b1-4)GlcNAc(b1-4)GlcNAc
# Method in brief: as §1
# [22] = biological target: Neu5Ac(a2-6)Gal(b1-4)GlcNAc(b1-2)Man(a1-3)[Man(a1-6)]Man(b1-4)GlcNAc(b1-4)GlcNAc
# Method in brief: as §1
# [23] = biological target: Neu5Ac(a2-6)Gal(b1-4)GlcNAc(b1-2)Man(a1-3)[Neu5Ac(a2-6)Gal(b1-4)GlcNAc(b1-2)Man(a1-6)]Man(b1-4)GlcNAc(b1-4)GlcNAc
# Method in brief: as §1
# [24] = biological target: Neu5Ac(a2-6)Gal(b1-4)GlcNAc(b1-2)Man(a1-6)Man(b1-4)GlcNAc(b1-4)GlcNAc
# Method in brief: as §1
# [25] = biological target: Neu5Ac(a2-6)Gal(b1-4)GlcNAc(b1-2)Man(a1-6)[Gal(b1-4)GlcNAc(b1-2)Man(a1-3)]Man(b1-4)GlcNAc(b1-4)GlcNAc
# Method in brief: as §1
# [26] = biological target: Neu5Ac(a2-6)Gal(b1-4)GlcNAc(b1-2)Man(a1-6)[GlcNAc(b1-2)Man(a1-3)]Man(b1-4)GlcNAc(b1-4)GlcNAc
# Method in brief: as §1
# [27] = biological target: Neu5Ac(a2-6)Gal(b1-4)GlcNAc(b1-2)Man(a1-6)[Man(a1-3)]Man(b1-4)GlcNAc(b1-4)GlcNAc
# Method in brief: as §1
# [28] = biological target: Neu5Ac(a2-6)Gal(b1-4)GlcNAc(b1-3)Gal(b1-3)GlcNAc
# Method in brief: as §1
# [29] = biological target: Neu5Ac(a2-6)Gal(b1-4)GlcNAc(b1-3)Gal(b1-4)GlcNAc
# Method in brief: as §1
# [30] = biological target: Neu5Ac(a2-6)Gal(b1-4)GlcNAc(b1-3)Gal(b1-4)GlcNAc(b1-3)Gal(b1-4)GlcNAc
# Method in brief: as §1
# [31] = biological target: Neu5Ac(a2-6)Gal(b1-4)GlcNAc(b1-3)Gal(b1-4)[Fuc(a1-3)]GlcNAc(b1-3)Gal(b1-4)[Fuc(a1-3)]GlcNAc
# Method in brief: as §1
# [32] = biological target: Neu5Ac(a2-6)Gal(b1-4)GlcNAc(b1-3)GalNAc
# Method in brief: as §1
# [33] = biological target: Neu5Ac(a2-6)Gal(b1-4)GlcNAc6S
# Method in brief: as §1
# [34] = biological target: Neu5Ac(a2-6)GalNAc
# Method in brief: as §1
# [35] = biological target: Neu5Ac(a2-6)GalNAc(b1-4)GlcNAc
# Method in brief: as §1
# [36] = biological target: Neu5Ac(a2-6)GlcNAc(b1-4)GlcNAc
# Method in brief: as §1
# [37] = biological target: Neu5Ac(a2-6)GlcNAc(b1-4)GlcNAc(b1-4)GlcNAc
# Method in brief: as §1
# [38] = biological target: Neu5Ac(a2-8)Neu5Ac
# Method in brief: as §1
# [39] = biological target: Neu5Ac(a2-8)Neu5Ac(a2-3)Gal(b1-4)Glc
# Method in brief: as §1
# [40] = biological target: Neu5Ac(a2-8)Neu5Ac(a2-3)[GalNAc(b1-4)]Gal(b1-4)Glc
# Method in brief: as §1
# [41] = biological target: Neu5Ac(a2-8)Neu5Ac(a2-8)Neu5Ac
# Method in brief: as §1
# [42] = biological target: Neu5Ac(a2-8)Neu5Ac(a2-8)Neu5Ac(a2-3)Gal(b1-4)Glc
# Method in brief: as §1
# [43] = biological target: Neu5Ac(a2-8)Neu5Ac(a2-8)Neu5Ac(a2-3)[GalNAc(b1-4)]Gal(b1-4)Glc
# Method in brief: as §1
# [44] = biological target: Neu5Ac(a2-8)Neu5Ac(a2-8)Neu5Ac(a2-8)Neu5Ac(a2-3)[GalNAc(b1-4)]Gal(b1-4)Glc
# Method in brief: as §1
# [45] = biological target: Neu5Ac(b2-6)Gal(b1-4)GlcNAc
# Method in brief: as §1
# [46] = biological target: Neu5Ac(b2-6)GalNAc
# Method in brief: as §1
# [47] = biological target: Neu5Ac9Ac(a2-3)Gal(b1-3)GlcNAc
# Method in brief: as §1
# [48] = biological target: Neu5Ac9Ac(a2-3)Gal(b1-4)GlcNAc
# Method in brief: as §1
# [49] = biological target: Neu5Ac9Ac(a2-6)Gal(b1-4)GlcNAc
# Method in brief: as §1
# [50] = biological target: Neu5Gc(a2-3)Gal(b1-3)GlcNAc
# Method in brief: as §1
# [51] = biological target: Neu5Gc(a2-3)Gal(b1-3)[Fuc(a1-4)]GlcNAc
# Method in brief: as §1
# [52] = biological target: Neu5Gc(a2-3)Gal(b1-4)Glc
# Method in brief: as §1
# [53] = biological target: Neu5Gc(a2-3)Gal(b1-4)GlcNAc
# Method in brief: as §1
# [54] = biological target: Neu5Gc(a2-3)Gal(b1-4)[Fuc(a1-3)]GlcNAc
# Method in brief: as §1
# [55] = biological target: Neu5Gc(a2-6)Gal(b1-4)GlcNAc
# Method in brief: as §1
# [56] = biological target: Neu5Gc(a2-6)GalNAc
# Method in brief: as §1
# [57] = biological target: Neu5Gc(b2-6)Gal(b1-4)GlcNAc
# Method in brief: as §1
binder,measurement,setting,value
"MRCL (Homo sapiens), NP_872425.1 (protein) ATKVHFPFHTCDLRIDGDCFMVSSEADTYYRARMKCQRKGGVLAQIKSQKVQDILAFYLGRLETTNEVTDSDFETRNFWIGLTYKTAKDSFRWATGEHQAFTSFAFGQPDNHGLVWLSAAMGFGNCVELQASAAFNWNNQRCKTRNRYICQFAQEHISRWGPGS",glycan array binding signal (z-score),[1],-0.275
same,glycan array binding signal (z-score),[2],-0.035
same,glycan array binding signal (z-score),[3],-0.637
same,glycan array binding signal (z-score),[4],-0.442
same,glycan array binding signal (z-score),[5],-0.645
same,glycan array binding signal (z-score),[6],-0.712
same,glycan array binding signal (z-score),[7],2.57
same,glycan array binding signal (z-score),[8],-0.333
same,glycan array binding signal (z-score),[9],-0.64
same,glycan array binding signal (z-score),[10],-0.424
same,glycan array binding signal (z-score),[11],0.235
same,glycan array binding signal (z-score),[12],0.305
same,glycan array binding signal (z-score),[13],-0.242
same,glycan array binding signal (z-score),[14],-0.175
same,glycan array binding signal (z-score),[15],0.351
same,glycan array binding signal (z-score),[16],-0.34
same,glycan array binding signal (z-score),[17],-0.541
same,glycan array binding signal (z-score),[18],-0.253
same,glycan array binding signal (z-score),[19],1.25
same,glycan array binding signal (z-score),[20],-0.489
same,glycan array binding signal (z-score),[21],-0.471
same,glycan array binding signal (z-score),[22],1.4
same,glycan array binding signal (z-score),[23],1.23
same,glycan array binding signal (z-score),[24],-0.627
same,glycan array binding signal (z-score),[25],-0.538
same,glycan array binding signal (z-score),[26],0.663
same,glycan array binding signal (z-score),[27],-0.277
same,glycan array binding signal (z-score),[28],0.693
same,glycan array binding signal (z-score),[29],-0.66
same,glycan array binding signal (z-score),[30],-0.367
same,glycan array binding signal (z-score),[31],-0.377
same,glycan array binding signal (z-score),[32],-0.457
same,glycan array binding signal (z-score),[33],0.995
same,glycan array binding signal (z-score),[34],-0.575
same,glycan array binding signal (z-score),[35],2.86
same,glycan array binding signal (z-score),[36],-0.547
same,glycan array binding signal (z-score),[37],-0.52
same,glycan array binding signal (z-score),[38],-0.294
same,glycan array binding signal (z-score),[39],-0.323
same,glycan array binding signal (z-score),[40],-0.697
same,glycan array binding signal (z-score),[41],-0.413
same,glycan array binding signal (z-score),[42],0.302
same,glycan array binding signal (z-score),[43],0.167
same,glycan array binding signal (z-score),[44],1.56
same,glycan array binding signal (z-score),[45],-0.504
same,glycan array binding signal (z-score),[46],5.61
same,glycan array binding signal (z-score),[47],-0.498
same,glycan array binding signal (z-score),[48],-0.194
same,glycan array binding signal (z-score),[49],1.66
same,glycan array binding signal (z-score),[50],-0.561
same,glycan array binding signal (z-score),[51],0.542
same,glycan array binding signal (z-score),[52],0.027
same,glycan array binding signal (z-score),[53],-0.638
same,glycan array binding signal (z-score),[54],-0.331
same,glycan array binding signal (z-score),[55],0.524
same,glycan array binding signal (z-score),[56],-0.317
same,glycan array binding signal (z-score),[57],0.163
